Test results reported in the RNAGym collection of RNA variant scans (doi:10.7554/elife.90254).
The source gives no read counts; variants with many changes may rest on few reads.

B1: LINE1-mini (parent)
chain: GGCAGAGCUCAACACAGCGUGGCAAAGUGGCUGUGGCUAGACUGCC

Variants of: B1
Assay: self-cleavage, relative activity (ratio to wild type); higher = more cleavage; in vitro, sequencing; the parent is a self-cleaving ribozyme
Variant GGCAGAGGUCAACACAGCGUGGCAAAUUGGCUGUGGCUGGACUGCC [C8G G27U A39G] has a self-cleavage of 0.02.
In the case of GGCAGAGGUCAACACAGCGUGGCAAAGUGGCUGUGGCUACGCUGCC [C8G G40C A41G], the self-cleavage is reported as 0.15.
Variant GGCAGAGGUCAACACAGCGUGGCAAAGUGACUGAGGUUAGACUUCC [C8G G30A U34A C37U G44U] has a self-cleavage of 0.01.
With GGCAGAGGACAACACAGCGUGGAAAAGUGGCUGUGGCUAUACUGCC [C8G U9A C23A G40U] the self-cleavage was 0.09.
For GGCAGAGGUCAACACAGCGUGGCAAAUUGACUGUGGCUAGACUGCC [C8G G27U G30A], the self-cleavage was 0.12.
For GGCAGAGGUCAACACAGCUUGGCAAAGUGGAUGUGGCUAGACUGCC [C8G G19U C31A], the self-cleavage was 0.03.
GGCAGAGGUCAACACAGCGUGGCAAACUGGCUGUGGUUAGACUGCC [C8G G27C C37U] showed a self-cleavage of 0.01.
With GGCAGAGGUCAACACAGCGUGCCAAAGUGGCUGUGGCUAGACUGAC [C8G G22C C45A] the self-cleavage was 0.01.
GGCAGAGGUCAACACAGCGUGGCAAAUUGGAGGUUUCUAGACUGCC [C8G G27U C31A U32G G35U G36U] showed a self-cleavage of 0.01.
Work on GGCAGAGGUCAACACAGCAUGGCAAAGUGGCUGUGGUUAGACUGCC [C8G G19A C37U] yielded a self-cleavage of 0.05.
GGCAGAGGUCAACACAGCAUGGCAAAGUGGCUGCGGCUAGACUGCC [C8G G19A U34C] showed a self-cleavage of 0.1.
With GGCAGAGGACAAGACAGCGUGGCAAAGUCGCUAUGGCUAGACUACA [C8G U9A C13G G29C G33A G44A C46A] the self-cleavage was 0.13.
Variant GGCAGAGGUCAACACAGCGUGGCAAAGUGGCUGUGGCUAUACUUCC [C8G G40U G44U] has a self-cleavage of 0.08.
With GGCAGAGGUCAACACAGCGUGGCAAAAUGUCUGUGGCUAGACUGCC [C8G G27A G30U] the self-cleavage was 0.06.
Work on GGCAGAGGUCAACACAUCGUGGCAAAGAGGCUGUGGCUAGAGUGCC [C8G G17U U28A C42G] yielded a self-cleavage of 0.
With GGCAGAGGUCAACACAGCGUGGCAAAGUGCCUGUGGCUAGACUUCC [C8G G30C G44U] the self-cleavage was 0.05.
For GGCAGAGGUCAACACAGCGUGACAAAGUGGCUGUGGCUAGACUGCA [C8G G22A C46A], the self-cleavage was 0.02.
In the case of GGCAGAGGUCAACACAGCGUAGCAAAGUGGCUGUGGCUAGACUCCC [C8G G21A G44C], the self-cleavage is reported as 0.06.
For GGCAGAGGUCAACACAGCGUGUCCAAGUGGCUGUGGCUAGACUGCC [C8G G22U A24C], the self-cleavage was 0.07.
In the case of GGCAGAGGUCAACACAGCGUGGCAAAGUUGCUGUGGCUGGACUGCC [C8G G29U A39G], the self-cleavage is reported as 0.04.
For GGCAGAGGUCAACACAGCGUGACACAGUGGCUGUGGCUAGACUGCC [C8G G22A A25C], the self-cleavage was 0.02.
In the case of GGCAGAGGUCAACACAGCGUGACAAAGUGUCUGUGGCUAUACUGCC [C8G G22A G30U G40U], the self-cleavage is reported as 0.02.
GGCAGAGGUCAACACAGCGUGACAAAGUGGCUGUGGCUAGUCUGCC [C8G G22A A41U] showed a self-cleavage of 0.19.
In the case of GGCAGAGGUCAACACAGCGUGGCAAAGUGGCUGUUGCUAGACUGGC [C8G G35U C45G], the self-cleavage is reported as 0.03.
For GGCAGAGGUCAACACAGCGUGACAAGGUGGAUGUGGCUAGACUGUC [C8G G22A A26G C31A C45U], the self-cleavage was 0.02.
Work on GGCAGAGGUCAACACAGCGUGGCAAAAUUGCGAUGUCUAGAAUGCC [C8G G27A G29U U32G G33A G36U C42A] yielded a self-cleavage of 0.16.
GGCAGAGGUCAACACAGCGUGGCAAAGUGACCUUGGCUCGACCGCC [C8G G30A U32C G33U A39C U43C] showed a self-cleavage of 0.01.
GGCAGAGGUCAACACAGCGUGAGAAAGUGGCUUUGGCUUGACUGCC [C8G G22A C23G G33U A39U] showed a self-cleavage of 0.03.
Variant GGCAGAGGUCAACACAGCGUGGCAAAGUGGCUGUGCCUUGACUGCC [C8G G36C A39U] has a self-cleavage of 0.09.
Work on GGCAGAGGUCAACACAGCGUGGCAAACUGGCUGUGCAUAGACUGCC [C8G G27C G36C C37A] yielded a self-cleavage of 0.18.
GGCAGAGGUCAACACAGCGUGUCAGAGUGGCUGUGGAUAGACUGCC [C8G G22U A25G C37A] showed a self-cleavage of 0.02.
With GGCAGAGGUCAACACAGCGUCGUAAAGUGGCUGUGGCUAGACUGCU [C8G G21C C23U C46U] the self-cleavage was 0.02.
For GGCAGAGGUCAACACAGCGUUGCAAAGUGGCUGUGGCUAGACCGCC [C8G G21U U43C], the self-cleavage was 0.01.
With GGCAGAGGUCAACACAGCGUGGCAAAUUGGCUCUGGCUAGACUGCC [C8G G27U G33C] the self-cleavage was 0.02.
In the case of GGCAGAGGUCAACACAGCGUGGCAAAUUGGCUGUGACUGGACUGCC [C8G G27U G36A A39G], the self-cleavage is reported as 0.01.
GGCAGAGGUCAACACAGCGUGUCAAAGUGGCUCUGGCUAGACUGCC [C8G G22U G33C] gave a self-cleavage of 0.01.
Work on GGCAGAGGACAACAUAGAGUGGCAACGUGGCUGUGGCUAGACUGUC [C8G U9A C15U C18A A26C C45U] yielded a self-cleavage of 0.11.
GGCAGAGGUCAACACAGCGUGGCAAAGUGGCUGUGUGUAGACUGCC [C8G G36U C37G] showed a self-cleavage of 0.06.
GGCAGAGGUCAACACAUCGUGGCAAAGUGGCUGUGGCUAGACUUCC [C8G G17U G44U] showed a self-cleavage of 0.02.
For GGCAGAGGUCAACACAGCGUGGCAAAGUUGCUGUGGAUAGACUGCC [C8G G29U C37A], the self-cleavage was 0.04.
In the case of GGCAGAGGUCAACACAGCGUGGCAAAGUGGCUUUGGUUAGACUGCC [C8G G33U C37U], the self-cleavage is reported as 0.03.
With GGCAGAGGUCAACACAGCCUAGCAAUGUGGCUGUGGCUAGACUGCC [C8G G19C G21A A26U] the self-cleavage was 0.05.
For GGCAGAGGUCAACACAGCGUGGCAAAUUUGCUGUGGCUAGAAUGGC [C8G G27U G29U C42A C45G], the self-cleavage was 0.26.
For GGCAGAGGUCAACACAGCCUGGCAAGGUGGCACUGGCUAGACUGCC [C8G G19C A26G U32A G33C], the self-cleavage was 0.01.
With GGCAGAGGUCAACACAGCGUGGCAAAGUUACUGUGGCUAGACUGCC [C8G G29U G30A] the self-cleavage was 0.25.
GGCAGAGGUCAACACAGCGUGGCAAAGUGACUGUGGCUUGACUGCC [C8G G30A A39U] gave a self-cleavage of 0.03.
With GGCAGAGGUCAACACAGCGUAGCAAAGUGGCUGUGGCUGGACUGCC [C8G G21A A39G] the self-cleavage was 0.03.
Work on GGCAGAGGUCAACACAGCAUGGCAAAGGGGCUGUGGCUAAACUGCC [C8G G19A U28G G40A] yielded a self-cleavage of 0.12.
GGCAGAGGUCAACACAGCGUAGCAAGGUGGCUGUGGCUAGACAGCC [C8G G21A A26G U43A] gave a self-cleavage of 0.02.
Variant GGCAGAGGUCAACACAGCGUGGCAAAGUGGCUGUGGCUACACUGAC [C8G G40C C45A] has a self-cleavage of 0.11.
With GGCAGAGGUCAACACAGCGUGGCAAAAUGGCUGUGGCUAGAUUGCC [C8G G27A C42U] the self-cleavage was 0.03.
In the case of GGCAGAGGUCAACACAGCGUGGCAAAGUAGAUGUGGCUAGACUGCC [C8G G29A C31A], the self-cleavage is reported as 0.12.
Variant GGCAGAGGUCAACACAGCGUUACAAAGUGGCUGUUGCUAGACUGCC [C8G G21U G22A G35U] has a self-cleavage of 0.34.
In the case of GGCAGAGGUCAACACAGCUUGUCAAAGUGGCUGUGGCUAGACUGCC [C8G G19U G22U], the self-cleavage is reported as 0.02.
In the case of GGCAGAGGUCAACACAGCGUGGCAAAGUGGCUGUCGCUAGACUGGC [C8G G35C C45G], the self-cleavage is reported as 0.06.
In the case of GGCAGAGGUCAACACAGCGUGGCAAAGUGACUGUGUCUAGACUGCC [C8G G30A G36U], the self-cleavage is reported as 0.1.
